Where a chain is given by its changes, count along the chain named. The list shows a part of the results.
T1: RBFOX1 RRM RbFoxmut (Fox-RRM*) (Homo sapiens, UniProt Q9NWB1 109-208, R118D;E147R;N151S;E152T)
T1 sequence: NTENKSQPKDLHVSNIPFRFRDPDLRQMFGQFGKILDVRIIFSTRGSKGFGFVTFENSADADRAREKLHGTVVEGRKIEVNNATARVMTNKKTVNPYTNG

B1: UGUUACA (DNA:RNA)
RNA: GGGAGACCGGAAUUCAGAUUGUCCUGUUACAUUAAAUCCCGUCGUAGCCACCA
DNA 1: CAATCTGAATTCCGGTCTCCC
DNA 2: TGGTGGCTACGACGGGATT
B2: UACCCAA (DNA:RNA)
RNA: B1 RNA with G26A, U27C, U28C, A29C, C30A
DNA 1: CAATCTGAATTCCGGTCTCCC
DNA 2: TGGTGGCTACGACGGGATT
B3: UGUCCUU (DNA:RNA)
RNA: B1 RNA with U28C, A29C, C30U, A31U
DNA 1: CAATCTGAATTCCGGTCTCCC
DNA 2: TGGTGGCTACGACGGGATT
B4: UCUAUGU (DNA:RNA)
RNA: B1 RNA with G26C, U28A, A29U, C30G, A31U
DNA 1: CAATCTGAATTCCGGTCTCCC
DNA 2: TGGTGGCTACGACGGGATT
B5: CACAGCC (DNA:RNA)
RNA: B1 RNA with U25C, G26A, U27C, U28A, A29G, A31C
DNA 1: CAATCTGAATTCCGGTCTCCC
DNA 2: TGGTGGCTACGACGGGATT
B6: GUCGCUC (DNA:RNA)
RNA: GGGAGACCGGAAUUCAGAUUGUCCGUCGCUCUUAAAUCCCGUCGUAGCCACCA
DNA 1: CAATCTGAATTCCGGTCTCCC
DNA 2: TGGTGGCTACGACGGGATT
B7: ACUGAAA (DNA:RNA)
RNA: B1 RNA with U25A, G26C, U28G, C30A
DNA 1: CAATCTGAATTCCGGTCTCCC
DNA 2: TGGTGGCTACGACGGGATT
B8: GGCGCCU (DNA:RNA)
RNA: B6 RNA with U26G, U30C, C31U
DNA 1: CAATCTGAATTCCGGTCTCCC
DNA 2: TGGTGGCTACGACGGGATT
B9: UGGCGCA (DNA:RNA)
RNA: B1 RNA with U27G, U28C, A29G
DNA 1: CAATCTGAATTCCGGTCTCCC
DNA 2: TGGTGGCTACGACGGGATT
B10: UUGUUGC (DNA:RNA)
RNA: B6 RNA with G25U, C27G, G28U, C29U, U30G
DNA 1: CAATCTGAATTCCGGTCTCCC
DNA 2: TGGTGGCTACGACGGGATT
B11: AGGAGAG (DNA:RNA)
RNA: B1 RNA with U25A, U27G, U28A, A29G, C30A, A31G
DNA 1: CAATCTGAATTCCGGTCTCCC
DNA 2: TGGTGGCTACGACGGGATT
B12: CCCUCCG (DNA:RNA)
RNA: B6 RNA with G25C, U26C, G28U, U30C, C31G
DNA 1: CAATCTGAATTCCGGTCTCCC
DNA 2: TGGTGGCTACGACGGGATT
B13: AAAGGAU (DNA:RNA)
RNA: B6 RNA with G25A, U26A, C27A, C29G, U30A, C31U
DNA 1: CAATCTGAATTCCGGTCTCCC
DNA 2: TGGTGGCTACGACGGGATT
B14: CAGUCGA (DNA:RNA)
RNA: B1 RNA with U25C, G26A, U27G, A29C, C30G
DNA 1: CAATCTGAATTCCGGTCTCCC
DNA 2: TGGTGGCTACGACGGGATT
B15: AUACUUC (DNA:RNA)
RNA: B6 RNA with G25A, C27A, G28C, C29U
DNA 1: CAATCTGAATTCCGGTCTCCC
DNA 2: TGGTGGCTACGACGGGATT
B16: UGUGACA (DNA:RNA)
RNA: B1 RNA with U28G
DNA 1: CAATCTGAATTCCGGTCTCCC
DNA 2: TGGTGGCTACGACGGGATT
B17: CAUGCGG (DNA:RNA)
RNA: B6 RNA with G25C, U26A, C27U, U30G, C31G
DNA 1: CAATCTGAATTCCGGTCTCCC
DNA 2: TGGTGGCTACGACGGGATT
B18: CACGGCG (DNA:RNA)
RNA: B6 RNA with G25C, U26A, C29G, U30C, C31G
DNA 1: CAATCTGAATTCCGGTCTCCC
DNA 2: TGGTGGCTACGACGGGATT
B19: ACAACAU (DNA:RNA)
RNA: B6 RNA with G25A, U26C, C27A, G28A, U30A, C31U
DNA 1: CAATCTGAATTCCGGTCTCCC
DNA 2: TGGTGGCTACGACGGGATT
B20: AGAUAGU (DNA:RNA)
RNA: B1 RNA with U25A, U27A, C30G, A31U
DNA 1: CAATCTGAATTCCGGTCTCCC
DNA 2: TGGTGGCTACGACGGGATT

These binders were tested against T1, RBFOX1 RRM RbFoxmut (Fox-RRM*) (assay: EMSA; HiTS-Eq, 1 nM pool, 10 min; buffer printed only for the single-RNA assays: 10 mM Tris pH 7.5, 150 mM NaCl, 3.4 mM EDTA, 0.001% NP-40, 30 C). Conditions: tags: His6 N-terminal (pET28a); label: 5' 32P.
In short: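 A pool of RNA with 7 randomized nucleotides, 5′-radiolabelled and with DNA-annealed flanks, was equilibrated at 1 nM for 10 min in 50 µL with purified RbFox RRM, wild type or mutant, across increasing protein concentrations. Free RNA was separated by 8% native PAGE, excised, reverse-transcribed, barcoded by PCR and sequenced. Relative association constants were obtained from read-count changes of each RNA species versus the control reaction and normalised to the cognate motif.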
In the case of B1, the binding signal is reported as 0.109 KA relative to UGCAUGU.
B2 was tested, and the binding signal was 0.0796 KA relative to UGCAUGU.
B3 was tested, and the binding signal was 0.0794 KA relative to UGCAUGU.
B4 was tested, and the binding signal was 0.161 KA relative to UGCAUGU.
With B5 the binding signal was 0.078 KA relative to UGCAUGU.
B6 was tested, and the binding signal was 0.0832 KA relative to UGCAUGU.
For B7, the binding signal was 0.0571 KA relative to UGCAUGU.
With B8 the binding signal was 0.0758 KA relative to UGCAUGU.
With B9 the binding signal was 0.166 KA relative to UGCAUGU.
With B10 the binding signal was 0.148 KA relative to UGCAUGU.
With B11 the binding signal was 0.129 KA relative to UGCAUGU.
In the case of B12, the binding signal is reported as 0.0774 KA relative to UGCAUGU.
B13 was tested, and the binding signal was 0.0765 KA relative to UGCAUGU.
In the case of B14, the binding signal is reported as 0.0678 KA relative to UGCAUGU.
B15 was tested, and the binding signal was 0.0634 KA relative to UGCAUGU.
For B16, the binding signal was 0.0706 KA relative to UGCAUGU.
B17 was tested, and the binding signal was 0.0671 KA relative to UGCAUGU.
For B18, the binding signal was 0.129 KA relative to UGCAUGU.
In the case of B19, the binding signal is reported as 0.0911 KA relative to UGCAUGU.
In the case of B20, the binding signal is reported as 0.108 KA relative to UGCAUGU.

Reference: paper PMC9911399, “Two distinct binding modes provide the RNA-binding protein RbFox with extraordinary sequence specificity”
